The source of these data is the supplement of paper PMC4604168 (melanoma cell lines).

The structures appear in SMILES notation. The list shows a part of the results. Single values are uncertain, as repeats are few or missing.

What all share (experiment): cell count relative to DMSO control; melanoma cells; higher = more viable cells
Details in all cases: library dose: low library concentration; 72 h

For assay [1], the system named is WM1745.
The subject of assay [2] is WM3526.
Assay [3] relates to WM3619.
Assay [4] relates to WM451Lu.
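Also: cell number obtained by counting DAPI-stained nuclei in high-throughput microscope images with image analysis software, screen run in 1,536-well plates.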

Regarding `COc1cc2ncnc(Nc3ccc(Oc4ccccc4)cc3)c2cc1OC` + CC(C)CCN1c2nc(Nc3cc(F)c(O)c(F)c3)ncc2N(C)C(=O)C1C [BID1870] (first compound 2 µM, partner dose 0.2 µM), the cell count turned out to be 92.9% in assay [1], 105% in assay [2], 109% in assay [3] and 120% in assay [4].

Consider `Oc1cc(-c2nc(-c3ccccc3)[nH]c2-c2ccncc2)ccc1Cl` + Cn1cc(/C=C2\C(=O)Nc3cccnc32)c2ccccc21 [GW441756] (first compound 0.2 µM, partner dose 0.4 µM), for which the cell count amounted to 79.8% in assay [1], 70.9% in assay [2], 97.8% in assay [3] and 120% in assay [4].

Regarding `O=C(O)C(=O)Nc1sc2c(c1C(=O)O)CCNC2` + CC(C)CCN1c2nc(Nc3cc(F)c(O)c(F)c3)ncc2N(C)C(=O)C1C [BID1870] (first compound 1.66667 µM, partner dose 0.2 µM), the cell count was 75.2% in assay [1], 87% in assay [2], 155% in assay [3] and 112% in assay [4].

On to `COc1cc2ncnc(Nc3ccc(Oc4ccccc4)cc3)c2cc1OC` + COc1cc(N2CCC(N3CCN(C)CC3)CC2)ccc1Nc1ncc(Cl)c(Nc2ccccc2S(=O)(=O)C(C)C)n1 [NVP-TAE684] (first compound 2 µM, partner dose 0.08 µM), for which the cell count in assay [1] stood at 75.1%; in assay [2], 111%; in assay [3] it was 88.5%; in assay [4], 113%.

Take `N#Cc1c(O)c2c(-c3ccc(-c4ccccc4O)cc3)csc2[nH]c1=O` + COc1cc2ncnc(Nc3ccc(Oc4ccccc4)cc3)c2cc1OC [SrcI1] (first compound 2 µM, partner dose 2 µM): the cell count in assay [1] turned out to be 86.1%; in assay [2], 103%; in assay [3], 122%; in assay [4], 118%.

For `O=C(O)C(=O)Nc1sc2c(c1C(=O)O)CCNC2` + O=C1NC(=O)/C(=C/c2ccc(-c3ccc(F)cc3O)o2)S1 [AS252424] (first compound 1.66667 µM, partner dose 1 µM), the cell count came to 82.7% in assay [1], 109% in assay [2], 93.2% in assay [3] and 103% in assay [4].

Consider `COc1ccc2c(c1)CCC1C2CCC2(C)C(NCCCCCCN3C(=O)C=CC3=O)CCC12` (stereo not given) + CCCCCCCCCCCC1=C(O)C(=O)C=C(O)C1=O [Embelin] (first compound 0.4 µM, partner dose 1.2 µM), for which the cell count turned out to be 104% in assay [1], 101% in assay [2], 138% in assay [3] and 97.8% in assay [4].

Consider `COc1ccc(-c2ccc3c(N4CCOCC4)nc(N4C[C@@H](C)O[C@@H](C)C4)nc3n2)cc1CO` + c1cc(-c2cnn3cc(-c4ccc(OCCN5CCCCC5)cc4)cnc23)ccn1 [Dorsomorphin] (first compound 0.02 µM, partner dose 0.4 µM), for which the cell count in assay [1] was determined as 79.8%; in assay [2], 97.1%; in assay [3], 109%; in assay [4] it was 85.3%.

As to `CCN(CC)CCCCNc1ncc2cc(-c3cc(OC)cc(OC)c3)c(NC(=O)NC(C)(C)C)nc2n1` + Oc1cc(-c2nc(-c3ccccc3)[nH]c2-c2ccncc2)ccc1Cl [L779450] (first compound 0.1 µM, partner dose 0.2 µM), the cell count in assay [1] is 93.9%; in assay [2] it was 91.7%; in assay [3] it was 120%; in assay [4], 101%.

In the case of `c1cc(-c2cnn3cc(-c4ccc(OCCN5CCCCC5)cc4)cnc23)ccn1` [Dorsomorphin] + COc1cc(N2CCC(N3CCN(C)CC3)CC2)ccc1Nc1ncc(Cl)c(Nc2ccccc2S(=O)(=O)C(C)C)n1 [NVP-TAE684] (first compound 0.4 µM, partner dose 0.08 µM), the cell count in assay [1] came out at 78.6%; in assay [2], 90.6%; in assay [3] it was 127%; in assay [4], 99%.

On to `O=C(O)C(=O)Nc1sc2c(c1C(=O)O)CCNC2` + CCCCCCCCCCCC1=C(O)C(=O)C=C(O)C1=O [Embelin] (first compound 1.66667 µM, partner dose 1.2 µM), for which the cell count was determined as 89.4% in assay [1], 101% in assay [2], 132% in assay [3] and 105% in assay [4].

As to `CCCCCCCCCCCC1=C(O)C(=O)C=C(O)C1=O` [Embelin] + O=c1cc(-c2cccc3c2Sc2ccccc2S3)oc(N2CCOCC2)c1 [KU55933] (first compound 1.2 µM, partner dose 1 µM), the cell count in assay [1] turned out to be 72.7%; in assay [2] it was 96.6%; in assay [3], 95.1%; in assay [4], 99.3%.

In the case of `Oc1cc(-c2nc(-c3ccccc3)[nH]c2-c2ccncc2)ccc1Cl` + CC(C)CCN1c2nc(Nc3cc(F)c(O)c(F)c3)ncc2N(C)C(=O)C1C [BID1870] (first compound 0.2 µM, partner dose 0.2 µM), the cell count in assay [1] came out at 75.6%; in assay [2] it was 58.7%; in assay [3] it was 91.7%; in assay [4] it was 95%.

As for `COc1ccc(-c2ccc3c(N4CCOCC4)nc(N4C[C@@H](C)O[C@@H](C)C4)nc3n2)cc1CO` + O=c1cc(-c2cccc3c2Sc2ccccc2S3)oc(N2CCOCC2)c1 [KU55933] (first compound 0.02 µM, partner dose 1 µM), the cell count was found to be 99.4% in assay [1], 88.4% in assay [2], 83.9% in assay [3] and 74.8% in assay [4].

Take `O=C(O)C(=O)Nc1sc2c(c1C(=O)O)CCNC2` + c1cc(-c2cnn3cc(-c4ccc(OCCN5CCCCC5)cc4)cnc23)ccn1 [Dorsomorphin] (first compound 1.66667 µM, partner dose 0.4 µM): the cell count in assay [1] was 82.2%; in assay [2], 87.3%; in assay [3], 163%; in assay [4], 97.5%.

For `COc1ccc(COc2ccc(Cc3cnc(N)nc3N)cc2OC)cc1` + Oc1nc(-c2ccc(C(F)(F)F)cc2)nc2c1CSCC2 [XAV939] (first compound 1 µM, partner dose 2 µM), the cell count in assay [1] amounted to 72.2%; in assay [2], 105%; in assay [3] it was 99.5%; in assay [4], 113%.

For the compound `O=C1NC(=O)/C(=C/c2ccc(-c3ccc(F)cc3O)o2)S1` + Cn1cc(/C=C2\C(=O)Nc3cccnc32)c2ccccc21 [GW441756] (first compound 1 µM, partner dose 0.4 µM), the cell count in assay [1] turned out to be 101%; in assay [2], 107%; in assay [3], 87.4%; in assay [4] it was 114%.

Take `COc1cc2ncnc(Nc3ccc(Oc4ccccc4)cc3)c2cc1OC` + c1cc(-c2cnn3cc(-c4ccc(OCCN5CCCCC5)cc4)cnc23)ccn1 [Dorsomorphin] (first compound 2 µM, partner dose 0.4 µM): the cell count amounted to 82.8% in assay [1], 89.8% in assay [2], 102% in assay [3] and 109% in assay [4].

In the case of `Oc1cc(-c2nc(-c3ccccc3)[nH]c2-c2ccncc2)ccc1Cl` + COc1cc(N2CCC(N3CCN(C)CC3)CC2)ccc1Nc1ncc(Cl)c(Nc2ccccc2S(=O)(=O)C(C)C)n1 [NVP-TAE684] (first compound 0.2 µM, partner dose 0.08 µM), the cell count in assay [1] came out at 62.4%; in assay [2], 61.2%; in assay [3], 86.3%; in assay [4], 106%.

As for `COc1ccc2c(c1)CCC1C2CCC2(C)C(NCCCCCCN3C(=O)C=CC3=O)CCC12` (stereo not given) + COc1cc2ncnc(Nc3ccc(Oc4ccccc4)cc3)c2cc1OC [SrcI1] (first compound 0.4 µM, partner dose 2 µM), the cell count in assay [1] was determined as 86.5%; in assay [2] it was 88%; in assay [3], 77.5%; in assay [4], 97%.

Take `O=S(=O)(c1ccccc1)N(CC(F)(F)F)c1ccc(C(O)(C(F)(F)F)C(F)(F)F)cc1` + Cc1cc([N+](=O)[O-])ccc1NS(=O)(=O)c1cc(Cl)ccc1Cl [FH535] (first compound 1.4 µM, partner dose 1 µM): the cell count in assay [1] was 72.4%; in assay [2] it was 87.2%; in assay [3], 108%; in assay [4], 90.2%.

As for `O=C(O)C(=O)Nc1sc2c(c1C(=O)O)CCNC2` + COc1cc(N2CCC(N3CCN(C)CC3)CC2)ccc1Nc1ncc(Cl)c(Nc2ccccc2S(=O)(=O)C(C)C)n1 [NVP-TAE684] (first compound 1.66667 µM, partner dose 0.08 µM), the cell count turned out to be 83.5% in assay [1], 94.1% in assay [2], 119% in assay [3] and 102% in assay [4].

For the compound `CCN(CC)CCCCNc1ncc2cc(-c3cc(OC)cc(OC)c3)c(NC(=O)NC(C)(C)C)nc2n1` + O=C1NC(=O)/C(=C/c2ccc(-c3ccc(F)cc3O)o2)S1 [AS252424] (first compound 0.1 µM, partner dose 1 µM), the cell count in assay [1] turned out to be 116%; in assay [2] it was 93.3%; in assay [3], 101%; in assay [4] it was 110%.

On to `COc1cc2ncnc(Nc3ccc(Oc4ccccc4)cc3)c2cc1OC` + O=C(O)C(=O)Nc1sc2c(c1C(=O)O)CCNC2 [TCS401] (first compound 2 µM, partner dose 1.66667 µM), for which the cell count in assay [1] worked out at 91%; in assay [2], 106%; in assay [3] it was 116%; in assay [4], 110%.

As for `COc1cc2ncnc(Nc3ccc(Oc4ccccc4)cc3)c2cc1OC` + Oc1cc(-c2nc(-c3ccccc3)[nH]c2-c2ccncc2)ccc1Cl [L779450] (first compound 2 µM, partner dose 0.2 µM), the cell count was determined as 73.3% in assay [1], 85.3% in assay [2], 107% in assay [3] and 101% in assay [4].

Turning to `N#Cc1c(O)c2c(-c3ccc(-c4ccccc4O)cc3)csc2[nH]c1=O` + O=c1cc(-c2cccc3c2Sc2ccccc2S3)oc(N2CCOCC2)c1 [KU55933] (first compound 2 µM, partner dose 1 µM), the cell count in assay [1] worked out at 93%; in assay [2], 102%; in assay [3] it was 108%; in assay [4], 95.1%.

Consider `O=S(=O)(c1ccccc1)N(CC(F)(F)F)c1ccc(C(O)(C(F)(F)F)C(F)(F)F)cc1` + O=C(O)C(=O)Nc1sc2c(c1C(=O)O)CCNC2 [TCS401] (first compound 1.4 µM, partner dose 1.66667 µM), for which the cell count in assay [1] worked out at 77.2%; in assay [2] it was 104%; in assay [3] it was 100%; in assay [4] it was 96.7%.

Take `COc1cc2ncnc(Nc3ccc(Oc4ccccc4)cc3)c2cc1OC` + Cc1cc([N+](=O)[O-])ccc1NS(=O)(=O)c1cc(Cl)ccc1Cl [FH535] (first compound 2 µM, partner dose 1 µM): the cell count was 76.9% in assay [1], 89.2% in assay [2], 66.1% in assay [3] and 97.3% in assay [4].

As for `COc1ccc(-c2ccc3c(N4CCOCC4)nc(N4C[C@@H](C)O[C@@H](C)C4)nc3n2)cc1CO` + COc1cc(N2CCC(N3CCN(C)CC3)CC2)ccc1Nc1ncc(Cl)c(Nc2ccccc2S(=O)(=O)C(C)C)n1 [NVP-TAE684] (first compound 0.02 µM, partner dose 0.08 µM), the cell count was 101% in assay [1], 84.4% in assay [2], 101% in assay [3] and 99.7% in assay [4].

In the case of `COc1ccc2c(c1)CCC1C2CCC2(C)C(NCCCCCCN3C(=O)C=CC3=O)CCC12` (stereo not given) + Oc1cc(-c2nc(-c3ccccc3)[nH]c2-c2ccncc2)ccc1Cl [L779450] (first compound 0.4 µM, partner dose 0.2 µM), the cell count in assay [1] was 66.5%; in assay [2] it was 84.6%; in assay [3] it was 73.3%; in assay [4], 110%.
